Experimental data taken from patent EP4491192A1 (Consejo Superior De Investigaciones Científicas, dated 2025).

Target: T1, human pre-TCR (pTα chain of the pre-T cell receptor) on the cell surface (human, UniProt Q6ISU1 24-281)
T1 sequence (looked up): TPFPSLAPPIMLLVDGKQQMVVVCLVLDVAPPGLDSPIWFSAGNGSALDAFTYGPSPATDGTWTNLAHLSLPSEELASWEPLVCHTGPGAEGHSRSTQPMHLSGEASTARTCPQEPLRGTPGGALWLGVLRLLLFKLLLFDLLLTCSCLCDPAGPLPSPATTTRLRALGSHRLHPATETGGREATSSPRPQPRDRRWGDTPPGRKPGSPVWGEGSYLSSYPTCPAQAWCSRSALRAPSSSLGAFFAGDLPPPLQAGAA
Test: cell-based or functional assay

specific lysis of JR-Mig-pTα cells at E:T cell ratio 0.25:1: ≤ 80%
specific lysis of JR-Mig-pTα cells at E:T cell ratio 0.5:1: ≤ 90%
B1: CARpTα.41BB (other, human)
chain: EVQLVESGGGLVKPGGSLQLSCAASGFTFNRYAMSWVRQTPEKRLEWVAAISSGGSYTYYPDSVKGRFIISRDNAKNTLSLQMSSLRSEDTAMFYCARLRVVAEGGSYFDYWGQGTTLTVSSGGGGSGGGGSGGGGSGGGGSDVLMTQTPLSLPVSLGDQASISCRSSQSILHSNGNTYLEWYLQKPGQSPKLLIYKVSNRFSGVPDRFSGSGSGTDFTLKISRVEAEDLGVYYCFQGSHVPVTFGSGTKLEIKTTTPAPRPPTPAPTIASQPLSLRPEACRPAAGGAVHTRGLDFACDIYIWAPLAGTCGVLLLSLVITLYCKRGRKKLLYIFKQPFMRPVQTTQEEDGCSCRFPEEEEGGCEL[in this place about 120 residues]
